In PubChem BioAssay (Tox21):
Inconclusive means that the source gave no clear call. Such entries were picked first, then a sample of the others. Potencies of inconclusive entries are doubtful fits and often do not repeat. A structure can be active in one record and inactive in another. Activity calls are given as the source filed them. Unless noted, the call rests on the fitted dose curve; in most records, active means well fitted curve in the direction sought with a large enough effect in the repeat runs; inconclusive means weak or mixed curves; inactive means no such curve, though single readings can be large; an effect the other way counts as inactive or inconclusive.

Experiments:
[1] = qHTS assay to identify small molecule antagonists of the estrogen receptor alpha (ER-alpha) signaling pathway using the BG1 cell line in the presence of 0.1 nM 17-beta-estradiol - cell viability counter screen (AID 1259241); further: nearly all actives have a fitted effect of over 40% in size
How it was run: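 VM7Luc4E2 cells (endogenous full-length ER-alpha, 4xERE-luciferase), cultured 5 days in charcoal-stripped serum, exposed to compounds with 0.1 nM 17beta-estradiol (final) for 22 hr at 37C. Viability read in same wells as live-cell protease fluorescence after 30 min.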

[2] = qHTS assay to identify small molecule antagonists of the androgen receptor (AR) signaling pathway using the MDA cell line in the presence of 0.5 nM R1881 - cell viability counter screen (AID 1259242); further: nearly all actives have a fitted effect of over 45% in size
How it was run: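 Viability of MDA-kb2 cells was multiplexed with the luciferase AR readout; after 16 hr with compounds and R1881 at 0.5 nM final, CellTiter-Fluor fluorescence was recorded.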

[3] = target: Estrogen receptor (Homo sapiens) (UniProt P03372); assay: qHTS assay to identify small molecule antagonists of the estrogen receptor alpha (ER-alpha) signaling pathway using the BG1 cell line in the presence of 0.1 nM 17-beta-estradiol (AID 1259244); further: nearly all actives have a fitted effect of over 50% in size
Chain of UniProt P03372 (P03372 whole entry, looked up): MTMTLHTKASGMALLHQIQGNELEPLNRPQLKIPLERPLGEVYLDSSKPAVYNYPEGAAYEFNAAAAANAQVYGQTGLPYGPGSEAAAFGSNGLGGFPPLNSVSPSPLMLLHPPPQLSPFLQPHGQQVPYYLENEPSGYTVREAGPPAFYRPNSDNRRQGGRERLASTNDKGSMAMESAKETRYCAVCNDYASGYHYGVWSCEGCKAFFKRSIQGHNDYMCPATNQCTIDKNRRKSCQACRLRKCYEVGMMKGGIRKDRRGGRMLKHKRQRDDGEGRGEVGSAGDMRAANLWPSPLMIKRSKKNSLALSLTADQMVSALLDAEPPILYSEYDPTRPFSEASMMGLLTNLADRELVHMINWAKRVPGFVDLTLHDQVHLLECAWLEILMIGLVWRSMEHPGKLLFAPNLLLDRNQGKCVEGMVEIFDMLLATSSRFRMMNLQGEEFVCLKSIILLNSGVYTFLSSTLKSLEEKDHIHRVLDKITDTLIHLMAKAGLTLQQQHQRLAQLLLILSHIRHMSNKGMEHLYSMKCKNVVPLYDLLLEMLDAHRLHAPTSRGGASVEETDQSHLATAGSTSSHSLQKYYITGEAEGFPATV
How it was run: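 Estradiol at 0.1 nM (final) stimulates the endogenous ER-alpha of VM7Luc4E2 cells carrying an ERE-driven luciferase; compounds are co-incubated 22 h at 37C and luciferase output quantified by luminescence.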

[4] = qHTS assay to identify small molecule agonists of the sonic hedgehog signaling (Shh) pathway - cell viability counter screen (AID 1259366); further: nearly all actives have a fitted effect of over 50% in size
How it was run: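 NIH/3T3-derived Gli1-Luc reporter cells, 2,000 per well, received compound after 4 h and were treated about 23 h at 37C. Viability measured in the same wells by CellTiter-Fluor fluorescence after 1 h.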

[5] = qHTS assay to identify small molecule antagonists of the sonic hedgehog signaling (Shh) pathway - cell viability counter screen (AID 1259367); further: nearly all actives have a fitted effect of over 55% in size
How it was run: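 Using CellTiter-Fluor, viability of Gli1-Luc reporter 3T3 cells is read by fluorescence in the wells used for the Shh luciferase assay. Treatment lasts 23 hr with conditioned medium, then reagent 1 hr at 37C.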

[6] = qHTS assay to identify small molecule antagonists of the sonic hedgehog signaling (Shh) pathway (AID 1259369; calls by dose curve; further: nearly all actives have a fitted effect of over 45% in size)
How it was run: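 For antagonist detection, the reporter line received test compounds together with conditioned medium, incubated 24hr at 37 C, 5% CO2, then luminescence was recorded following 30min room-temperature luciferase reagent incubation.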

[7] = target: Estrogen receptor beta (Homo sapiens) (UniProt Q92731); assay: qHTS assay to identify small molecule agonists of the estrogen receptor beta (ER-beta) signaling pathway (AID 1259377; active means well fitted activation curve with a large enough effect in the signal ratio in the repeat runs, not every such curve was filed as active; inconclusive means weak or mixed curves, or effect the other way; the % refers to the signal ratio); settings: ER-beta-UAS-bla HEK293T, beta-lactamase FRET ratio, 16 h; series mostly up to 92.4 µM
Chain of UniProt Q92731 (Q92731 whole entry, looked up): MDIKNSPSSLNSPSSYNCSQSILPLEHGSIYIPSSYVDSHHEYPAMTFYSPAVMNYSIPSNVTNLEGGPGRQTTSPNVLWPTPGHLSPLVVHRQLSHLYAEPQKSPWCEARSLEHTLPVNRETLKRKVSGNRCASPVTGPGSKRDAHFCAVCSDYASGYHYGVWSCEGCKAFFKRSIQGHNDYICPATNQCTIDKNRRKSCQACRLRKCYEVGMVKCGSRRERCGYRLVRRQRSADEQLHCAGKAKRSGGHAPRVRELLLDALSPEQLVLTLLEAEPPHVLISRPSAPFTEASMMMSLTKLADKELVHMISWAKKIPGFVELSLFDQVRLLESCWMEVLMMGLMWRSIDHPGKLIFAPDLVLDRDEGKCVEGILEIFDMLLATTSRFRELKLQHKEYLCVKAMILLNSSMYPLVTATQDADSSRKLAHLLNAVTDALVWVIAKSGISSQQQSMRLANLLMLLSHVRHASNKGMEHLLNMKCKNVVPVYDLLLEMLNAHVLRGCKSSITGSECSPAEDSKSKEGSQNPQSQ
How it was run: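 ER-beta-UAS-bla HEK293T cells in medium with 2% charcoal-stripped FBS were exposed to compounds for 16 h at 37C. Beta-lactamase reporter activity was read as fluorescence after 2 h with LiveBLAzer B/G FRET substrate at room temperature.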

[8] = target: Estrogen receptor beta (Homo sapiens) (UniProt Q92731); assay: qHTS assay to identify small molecule antagonists of the estrogen receptor beta (ER-beta) signaling pathway (AID 1259378; active means well fitted inhibition curve with a large enough effect in the signal ratio in the repeat runs, not every such curve was filed as active; inconclusive means weak or mixed curves, or effect the other way; inactive means no such curve, though single readings can be large or run the other way; the % refers to the signal ratio); settings: ER-beta-UAS-bla HEK293T, beta-lactamase FRET ratio, 16 h; series mostly up to 92.4 µM
How it was run: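 Antagonist mode: compounds added to beta-lactamase reporter HEK293T ER-beta-UAS cells stimulated with E2 (1nM final), 16 hr at 37C. LiveBLAzer B/G FRET substrate, 2 hours room temperature, fluorescence read-out.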

[9] = qHTS assay to identify small molecule agonists of the androgen receptor (AR) signaling pathway in the presence of an antagonist - cell viability counter screen (AID 1259379); further: nearly all actives have a fitted effect of over 25% in size
How it was run: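 Seed MDA-kb2 at 3,000 cells/well; incubate 5 hr, 37C, 0% CO2. Add nilutamide to 3.0uM final, then pin compounds at 15 concentrations. Incubate 16 hr. Add CellTiter-Fluor at 15 hr, read fluorescence after 1 hr.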

[10] = qHTS assay to identify small molecule agonists of the estrogen receptor beta (ER-beta) signaling pathway - cell viability counter screen (AID 1259380); further: nearly all actives have a fitted effect of over 30% in size
How it was run: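 CellTiter-Glo read, 30 min RT, same wells as bla assay; cells ER-beta-UAS-bla HEK293T; 16 hr compound, 37C; medium 2% charcoal-stripped FBS.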

[11] = qHTS assay to identify small molecule antagonists of the estrogen receptor beta (ER-beta) signaling pathway - cell viability counter screen (AID 1259382); further: nearly all actives have a fitted effect of over 55% in size
How it was run: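 In this multiplexed counter screen, cells were seeded at 2,000 per well in medium with 2% charcoal-stripped FBS and incubated 6 hr before compound and 1nM final E2 were added. Sixteen hours later, ATP-based luminescence reported viability.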

[12] = qHTS assay to identify small molecule agonists or antagonists of the thyroid stimulating hormone receptor (TSHR) signaling pathway - wild type cell line counter screen (AID 1259384; calls by dose curve); settings: HEK293 wild type, cAMP HTRF counter-screen; series mostly up to 92.4 µM
How it was run: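 Counter screen in untransfected Hek293: compounds (15-point titration, triplicate) plus phosphodiesterase inhibitor Ro20-1724 added after 18 h plating; 30 min RT. Intracellular cAMP via competitive d2/cryptate immunoassay, 1 h incubation.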

Measured: Potency
Potency means the concentration at half of the fitted maximal effect; tags describe the fitted curve by direction and shape or compound fluorescence and quenching.

CCCC(=O)OC[C@@H](OC(=O)CCC)[C@@H](OC(=O)CCC)[C@H](Cn1c2nc(=O)[nH]c(=O)c-2nc2cc(C)c(C)cc21)OC(=O)CCC
inconclusive: [1] 21.1 µM [rising, partial curve] | [4] 21.1 µM [rising, partial curve] | [5] 26.6 µM [rising, partial curve] | [7] 33.5 µM | [8] 33.5 µM [rising, single point]
inactive: [2]
active: [3] 26.6 µM | [6] 2.37 µM

O=C(c1ccccc1)c1ccc(O)cc1O
62.3 µM (active) and inactive: [11]
inconclusive: [1] 69.9 µM [cytotoxic, single point] | [3] 69.9 µM [inhibitor, single point] | [4] 69.9 µM [cytotoxic, single point] | [6] 68.6 µM [inhibitor, single point] | [9] 69.9 µM [cytotoxic, single point] | [10] 69.9 µM [cytotoxic, single point] | [12] 31.2 µM [rising, partial curve]

Cc1cc(=O)oc2cc(N(C)C)ccc12
inconclusive: [1] 48.6 µM [rising, partial curve] | [2] 54.5 µM [rising, partial curve] | [4] 48.6 µM [rising, partial curve] | [5] 34.4 µM [rising, partial curve] | [7] 68.6 µM [fluorescent, single point] | [8] 48.6 µM [activator, partial curve] | [9] 30.6 µM [rising, partial curve] | [10] 30.6 µM [cytotoxic, partial curve] | [11] 34.4 µM [cytotoxic, partial curve]
